Assay results from PubChem BioAssay (NCI).
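Exposure lasted 48 hours, with cells grown in 96-well plates and compounds tested at five concentrations. Here, GI50 denotes the concentration required for 50% inhibition of growth. TGI is the concentration that stops growth completely.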

Tested on: NCI-H322M lung
Test: NCI tumour cell line growth inhibition, 48 h

Row | SMILES | GI50 | TGI
1 | O=C1Nc2cc(Cl)ccc2/C1=C/c1cccc(OCc2ccc(Br)cc2F)c1 | 21 µM | > 100 µM
2 | CCN1CCN(c2ccc(NC(=O)Nc3ccc4c(c3F)CCN4c3ccnc(C(=O)NC)c3)cc2C(F)(F)F)CC1 | 5.88 µM | 10.9 µM
3 | COc1ccc(NC(=O)CSc2nnc(-c3ccc(-c4nc5ccccc5[nH]4)cc3)o2)cc1 | 2.15 µM | 5.99 µM
